# From article PMC4336329 (PLoS ONE, 2015)
# Among all 310,000 compounds or so, about 2,200 (0.71%) showed an effect of 50% or more. The effect is printed as a negative number. This is one part of the list.
# Biological target: human ether-à-go-go-related gene (hERG) potassium channel (human, UniProt Q12809)
# Experiment: primary screen, population patch clamp on CHO cells stably expressing hERG
# Sequence of human ether-à-go-go-related gene (hERG) potassium channel (Q12809 whole entry, looked up): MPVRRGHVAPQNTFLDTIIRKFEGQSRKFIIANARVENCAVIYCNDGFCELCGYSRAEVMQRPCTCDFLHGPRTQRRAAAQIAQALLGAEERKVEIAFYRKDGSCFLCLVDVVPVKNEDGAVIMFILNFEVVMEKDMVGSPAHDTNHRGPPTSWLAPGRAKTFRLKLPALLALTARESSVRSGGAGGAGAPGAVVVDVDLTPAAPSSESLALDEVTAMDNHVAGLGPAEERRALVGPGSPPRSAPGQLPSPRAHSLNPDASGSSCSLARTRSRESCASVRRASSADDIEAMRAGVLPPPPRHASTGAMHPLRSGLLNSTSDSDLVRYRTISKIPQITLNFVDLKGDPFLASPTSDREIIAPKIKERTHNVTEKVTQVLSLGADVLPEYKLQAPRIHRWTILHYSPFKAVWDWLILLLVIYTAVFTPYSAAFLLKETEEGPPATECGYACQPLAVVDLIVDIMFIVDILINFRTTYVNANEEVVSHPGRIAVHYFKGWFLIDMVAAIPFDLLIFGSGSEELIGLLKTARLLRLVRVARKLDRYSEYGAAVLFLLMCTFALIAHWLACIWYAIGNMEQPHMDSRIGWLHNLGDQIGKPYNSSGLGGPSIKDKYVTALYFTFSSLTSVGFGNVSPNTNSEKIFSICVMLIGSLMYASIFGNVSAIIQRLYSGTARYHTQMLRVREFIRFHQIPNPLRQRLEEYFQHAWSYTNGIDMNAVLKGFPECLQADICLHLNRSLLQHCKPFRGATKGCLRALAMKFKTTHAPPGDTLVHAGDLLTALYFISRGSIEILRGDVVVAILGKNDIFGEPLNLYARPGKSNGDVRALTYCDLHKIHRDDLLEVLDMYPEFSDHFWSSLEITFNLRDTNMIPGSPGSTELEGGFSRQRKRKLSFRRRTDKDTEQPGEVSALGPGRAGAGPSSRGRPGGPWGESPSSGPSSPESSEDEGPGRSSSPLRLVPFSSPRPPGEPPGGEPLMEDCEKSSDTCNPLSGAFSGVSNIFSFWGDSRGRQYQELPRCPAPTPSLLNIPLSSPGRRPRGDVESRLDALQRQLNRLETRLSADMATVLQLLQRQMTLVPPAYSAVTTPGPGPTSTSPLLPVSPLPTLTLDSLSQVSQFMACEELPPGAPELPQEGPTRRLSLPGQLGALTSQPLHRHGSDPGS
row,SMILES,"hERG current change (%, negative = inhibition) at 1uM"
1,CCCCN(C(=O)CSc1nnc2ccccn12)c1c(N)n(Cc2ccccc2)c(=O)[nH]c1=O,19%
2,CC1CCN(C(=O)C2CCCN(S(=O)(=O)c3ccc4c(c3)CC(C)N4C(=O)C3CC3)C2)CC1 (centres unmarked),9.31%
3,COc1ccc(OC)c(S(=O)(=O)N/N=C\c2cn(CC(N)=O)c3ccccc23)c1,18.4%
4,O=C(O)CN1CCN(Cc2ccccc2)C1=O,7.4%
5,Cc1ccc(SCc2c(C(=O)N/N=C/c3cccnc3)nnn2-c2nonc2N)cc1,16.6%
6,CC(C)(C)c1ccc(C(=O)Nc2ccc(O)c3c(=O)cc(-c4cccc(Cl)c4)oc23)cc1,11.8%
7,COc1ccc(C(=O)n2nnc3ccccc32)cc1OC,9.96%
8,CN(C)CCCNc1oc(-c2ccc(Cl)cc2)nc1C#N,-6.72%
9,Cc1nn(S(=O)(=O)c2ccc(Cl)cc2)c(C)c1S(=O)(=O)N1CCOCC1,18.4%
10,Cc1ccc(C)c(S(=O)(=O)N2CCN(CC(=O)NC(C)c3ccccc3)CC2)c1 (centres unmarked),7.36%
11,COc1ccc(/C=c2\sc3nc(-c4ccccc4OC)nn3c2=O)c(OC)c1,6.69%
12,O=C(Nc1ccncc1)C1CCN(S(=O)(=O)c2cccc(C(F)(F)F)c2)CC1,-5.26%
13,CCOC(=O)C1=C(C)n2c(s/c(=C3\C(=O)Nc4ccccc43)c2=O)=NC1c1ccc(OC)cc1 (centres unmarked),1.88%
14,CN(C)NC(=O)c1ccc([N+](=O)[O-])s1,11%
15,C=CCNc1nc(SC)nc2ccsc12,6.58%
16,CC(=O)c1cccc(NS(=O)(=O)c2cc(-c3cnc(C4CC4)o3)ccc2C)c1,22%
17,CCCN(C(=O)C(NC(=O)c1ccccc1)C(C)C)c1c(N)n(Cc2ccccc2)c(=O)[nH]c1=O (centres unmarked),-1.72%
18,CCCCNC(=O)c1onc(CSc2ccccn2)c1C(=O)NCCCC,3.06%
19,COc1cccc(-c2cc(-c3cccnc3)nc(N)c2C#N)c1,2.74%
20,CCOc1ccc(S(=O)(=O)N2CCN=C2Cc2ccccc2)cc1C,14.4%
21,CC(C)NC(=O)CN(c1cccc([N+](=O)[O-])c1)S(=O)(=O)c1ccccc1,17.6%
22,CCN(CC(=O)NCc1ccc(Cl)cc1)C(=O)c1c(C)noc1C,5.91%
23,O=C(NC1CCCCC1)C(=O)N(Cc1cccnc1)C(C(=O)NCc1ccco1)c1ccccc1 (centres unmarked),5.2%
